Results published in the supplement of paper PMC4604168 (melanoma cell lines).
The other results are listed elsewhere or left out. Many values rest on one well or one pass, so single values are uncertain.
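Also: cells treated in 1,536-well plates, then fixed and DAPI-stained, with nuclei counted from automated high-throughput microscope images.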

Each compound was assayed on UACC257 (assay: cell count relative to DMSO control; melanoma cells; higher = more viable cells). Conditions: library dose: standard library concentration; 72 h.
Work on Cc1ccc(Nc2nccc(N(C)c3ccc4c(C)n(C)nc4c3)n2)cc1S(N)(=O)=O [Pazopanib] + CC(C)CCN1c2nc(Nc3cc(F)c(O)c(F)c3)ncc2N(C)C(=O)C1C [BID1870] (first compound 2 µM, partner dose 1 µM) yielded a cell count of 77.7%.
Compound Cc1ccc(Nc2nccc(N(C)c3ccc4c(C)n(C)nc4c3)n2)cc1S(N)(=O)=O [Pazopanib] + CCc1ccc(CCOc2ccc(CC3SC(=O)NC3=O)cc2)nc1 [pioglitazone] (first compound 2 µM, partner dose 10 µM) has a cell count of 83.3%.
Compound O=C(/C=C/c1cccnc1)NCCCCC1CCN(C(=O)c2ccccc2)CC1 + O=C1NC(=O)/C(=C/c2ccc(-c3ccc(F)cc3O)o2)S1 [AS252424] (first compound 0.05 µM, partner dose 5 µM) has a cell count of 95.7%.
O=C(/C=C/c1cccnc1)NCCCCC1CCN(C(=O)c2ccccc2)CC1 + COc1ccc2c(c1)CCC1C2CCC2(C)C(NCCCCCCN3C(=O)C=CC3=O)CCC12 [U73122] (first compound 0.05 µM, partner dose 2 µM) was tested, and the cell count was 93.1%.
With O=C(/C=C/c1cccnc1)NCCCCC1CCN(C(=O)c2ccccc2)CC1 + CCN(CC)CCCCNc1ncc2cc(-c3cc(OC)cc(OC)c3)c(NC(=O)NC(C)(C)C)nc2n1 [PD173074] (first compound 0.05 µM, partner dose 0.5 µM) the cell count was 94.5%.
CC1(C)CCC(c2ccc(Cl)cc2)=C(CN2CCN(c3ccc(C(=O)NS(=O)(=O)c4ccc(N[C@H](CCN5CCOCC5)CSc5ccccc5)c(S(=O)(=O)C(F)(F)F)c4)cc3)CC2)C1 + O=C1NC(=O)/C(=C/c2ccc(-c3ccc(F)cc3O)o2)S1 [AS252424] (first compound 2 µM, partner dose 5 µM) showed a cell count of 26.5%.
In the case of Cc1ccc(Nc2nccc(N(C)c3ccc4c(C)n(C)nc4c3)n2)cc1S(N)(=O)=O [Pazopanib] + Oc1cc(-c2nc(-c3ccccc3)[nH]c2-c2ccncc2)ccc1Cl [L779450] (first compound 2 µM, partner dose 1 µM), the cell count is reported as 94.6%.
CC1(C)CCC(c2ccc(Cl)cc2)=C(CN2CCN(c3ccc(C(=O)NS(=O)(=O)c4ccc(N[C@H](CCN5CCOCC5)CSc5ccccc5)c(S(=O)(=O)C(F)(F)F)c4)cc3)CC2)C1 + COc1ccc2c(c1)CCC1C2CCC2(C)C(NCCCCCCN3C(=O)C=CC3=O)CCC12 [U73122] (first compound 2 µM, partner dose 2 µM) gave a cell count of 32.9%.
Cc1ccc(Nc2nccc(N(C)c3ccc4c(C)n(C)nc4c3)n2)cc1S(N)(=O)=O [Pazopanib] + O=C1NC(=O)/C(=C/c2ccc(-c3ccc(F)cc3O)o2)S1 [AS252424] (first compound 2 µM, partner dose 5 µM) showed a cell count of 95.1%.
For O=C(/C=C/c1cccnc1)NCCCCC1CCN(C(=O)c2ccccc2)CC1 + O=c1cc(-c2cccc3c2Sc2ccccc2S3)oc(N2CCOCC2)c1 [KU55933] (first compound 0.05 µM, partner dose 5 µM), the cell count was 104%.
For Cc1ccc(Nc2nccc(N(C)c3ccc4c(C)n(C)nc4c3)n2)cc1S(N)(=O)=O [Pazopanib] + N#Cc1c(O)c2c(-c3ccc(-c4ccccc4O)cc3)csc2[nH]c1=O [A769662] (first compound 2 µM, partner dose 10 µM), the cell count was 84.4%.
O=C(/C=C/c1cccnc1)NCCCCC1CCN(C(=O)c2ccccc2)CC1 + Oc1cc(-c2nc(-c3ccccc3)[nH]c2-c2ccncc2)ccc1Cl [L779450] (first compound 0.05 µM, partner dose 1 µM) was tested, and the cell count was 94.3%.
With CC1(C)CCC(c2ccc(Cl)cc2)=C(CN2CCN(c3ccc(C(=O)NS(=O)(=O)c4ccc(N[C@H](CCN5CCOCC5)CSc5ccccc5)c(S(=O)(=O)C(F)(F)F)c4)cc3)CC2)C1 + O=C(Nc1ccccc1)c1cc([N+](=O)[O-])ccc1Cl [GW9662] (first compound 2 µM, partner dose 10 µM) the cell count was 29%.
Compound CC1(C)CCC(c2ccc(Cl)cc2)=C(CN2CCN(c3ccc(C(=O)NS(=O)(=O)c4ccc(N[C@H](CCN5CCOCC5)CSc5ccccc5)c(S(=O)(=O)C(F)(F)F)c4)cc3)CC2)C1 + Nc1nc(F)nc2c1ncn2[C@@H]1O[C@H](CO)[C@@H](O)[C@@H]1O [fludarabine] (first compound 2 µM, partner dose 1 µM) has a cell count of 23.7%.
